The record followed here is paper PMC4336329 (PLoS ONE, 2015).

Structures are written as SMILES. Among all 310,000 compounds or so, about 2,200 (0.71%) showed an effect of 50% or more. The effect is printed as a negative number. The list shows a part of the results.

The assay deals with human ether-à-go-go-related gene (hERG) potassium channel (human, UniProt Q12809). Description: primary screen, population patch clamp on CHO cells stably expressing hERG.
Chain of human ether-à-go-go-related gene (hERG) potassium channel (Q12809 whole entry, looked up): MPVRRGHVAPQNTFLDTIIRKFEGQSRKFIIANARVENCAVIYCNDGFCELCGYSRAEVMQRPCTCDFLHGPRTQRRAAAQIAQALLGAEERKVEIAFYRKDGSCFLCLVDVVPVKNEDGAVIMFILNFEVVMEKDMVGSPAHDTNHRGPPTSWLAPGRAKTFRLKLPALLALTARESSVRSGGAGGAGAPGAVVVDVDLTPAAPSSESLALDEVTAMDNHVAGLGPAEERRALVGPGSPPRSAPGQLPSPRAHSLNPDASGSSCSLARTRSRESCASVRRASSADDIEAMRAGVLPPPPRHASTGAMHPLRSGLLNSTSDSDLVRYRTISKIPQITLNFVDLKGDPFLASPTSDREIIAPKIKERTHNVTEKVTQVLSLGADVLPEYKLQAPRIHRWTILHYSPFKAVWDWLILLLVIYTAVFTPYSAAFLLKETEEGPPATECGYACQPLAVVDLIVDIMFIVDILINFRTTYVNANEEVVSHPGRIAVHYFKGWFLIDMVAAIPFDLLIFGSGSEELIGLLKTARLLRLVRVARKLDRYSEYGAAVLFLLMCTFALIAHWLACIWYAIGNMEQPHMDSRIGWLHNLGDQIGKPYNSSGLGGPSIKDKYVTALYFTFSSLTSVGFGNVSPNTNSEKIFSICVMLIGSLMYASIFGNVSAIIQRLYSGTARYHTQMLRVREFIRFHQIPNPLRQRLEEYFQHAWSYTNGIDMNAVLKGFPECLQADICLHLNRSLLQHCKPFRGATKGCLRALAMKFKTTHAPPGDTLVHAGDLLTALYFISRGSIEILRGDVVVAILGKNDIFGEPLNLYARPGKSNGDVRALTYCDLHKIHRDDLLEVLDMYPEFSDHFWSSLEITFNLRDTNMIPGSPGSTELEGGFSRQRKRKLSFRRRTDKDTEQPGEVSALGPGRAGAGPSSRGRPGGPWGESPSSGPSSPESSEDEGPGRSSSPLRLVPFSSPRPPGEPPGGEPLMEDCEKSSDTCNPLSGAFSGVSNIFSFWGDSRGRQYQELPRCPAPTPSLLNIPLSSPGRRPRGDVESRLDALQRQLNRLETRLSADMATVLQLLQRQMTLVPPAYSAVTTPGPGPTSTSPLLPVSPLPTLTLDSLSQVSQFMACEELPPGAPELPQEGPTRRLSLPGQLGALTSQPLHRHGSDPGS
Consider `COCCNC(=O)c1cccc(OC2CCN(Cc3ccc(C(=O)OC)cc3)CC2)c1`, for which the “hERG current change (%, negative = inhibition) at 1uM” value is recorded as 6.44%. In the case of `CSc1nc2c(c(=O)[nH]c(=O)n2C)n1C/C=C(\C)Cl` it was 5.61%; in that of `Cc1csc(NC(=O)Cc2coc3cc(C)c(C(C)C)cc23)n1`, 14.8%.

`COc1ccc(/C=C(\C#N)C(=O)OCC(=O)NC(C)c2ccccc2)cc1` (stereo not drawn): the “hERG current change (%, negative = inhibition) at 1uM” value is given as -9.58%. Under `CCN(CC)S(=O)(=O)c1ccc2c(c1)nc(SCc1nc3ccsc3c(=O)[nH]1)n2CC` stands -16.5%. Take `CCCc1cc(NCCCn2ccnc2)n2nc(C)c(-c3ccccc3)c2n1`: the “hERG current change (%, negative = inhibition) at 1uM” value is listed as -7.1%. Under `O=P(Cc1ccccc1)(c1ccccc1)c1ccccc1` stands 11.5%; under `CC1CCCC(C)N1C(=O)CSc1nc(N)cc(N)n1` (stereo not drawn), 12.9%; under `CN(C)S(=O)(=O)c1cccc(NC(=O)c2ccc(COc3ccccc3)cc2)c1`, 9.82%. In the case of `N#Cc1cc(S(=O)(=O)N2CCOCC2)ccc1N1CCOCC1` it was 4.8%; in that of `COc1ccc(Cl)cc1S(=O)(=O)N1CCN(C(=O)c2ccco2)CC1`, 0.165%; in that of `CCn1cc(C(=O)O)c(=O)c2cc(F)c(N3CCN(C(=O)Nc4ccccc4)CC3)cc21`, 11.8%. Under `Cc1ccc(N2Cc3ccccc3OC(C)C2=O)cc1` (stereo not drawn) stands 12.5%. Consider `CCCCCCCCCC(=O)Nc1cccnc1`, for which the “hERG current change (%, negative = inhibition) at 1uM” value is 6.58%. As to `CCOc1ccc(NC(=O)CN2C(=O)CSC2=O)cc1`, the “hERG current change (%, negative = inhibition) at 1uM” value was 10.5%.

In the case of `O=S(=O)(Nc1ccc(Br)cn1)c1ccc2ccccc2c1`, the “hERG current change (%, negative = inhibition) at 1uM” value was found to be 23.8%. Regarding `COc1ccccc1-c1ccc(Nc2ccc(C(=O)N3CCOCC3)cc2)nn1`, the “hERG current change (%, negative = inhibition) at 1uM” value worked out at 1.47%. Under `O=C1/C(=C/c2ccncc2)SC(=S)N1N1CCOCC1` stands 11.7%; under `C/C(CC(=O)Nc1cccc(C(F)(F)F)c1)=N/NC(=O)C(=O)NCCO`, 22.5%; under `COc1ccc(C(=O)NCc2ccncc2)cc1S(=O)(=O)N1CCOCC1`, -1.77%. Regarding `CC(C)(C)c1ccc(C(=O)N/C(=C\c2cccs2)C(=O)NCc2ccco2)cc1`, the “hERG current change (%, negative = inhibition) at 1uM” value was 8.21%.

For the compound `COC(=O)c1[nH]c2ccc(C)cc2c1NC(=O)Nc1ccccc1OC`, the “hERG current change (%, negative = inhibition) at 1uM” value was 0.78%. As to `COc1ccc(O)c(-c2[nH]ncc2C(=O)c2ccccc2C)c1`, the “hERG current change (%, negative = inhibition) at 1uM” value is given as 4.01%.

Turning to `O=C(CCNC(=O)c1ccccc1Cl)Nc1nccs1`, the “hERG current change (%, negative = inhibition) at 1uM” value turned out to be 9.21%. In the case of `O=C(C1CCCO1)N1CCN(C(=S)Nc2ccc(Cl)cc2)CC1` (stereo not drawn), the “hERG current change (%, negative = inhibition) at 1uM” value is given as 0.373%. In the case of `Cc1nn(C)cc1CN(C)Cc1c(C(=O)N(C)Cc2ccccc2)nc2ccccn12` it was 6.16%; in that of `CCOC(=O)/C(C#N)=C1/SC(CC)C(=O)N1c1ccc(Br)cc1` (stereo not drawn), -8.3%; in that of `COc1cccc(N2CC(O)Cn3c2nc2c3c(=O)n(CCCc3ccccc3)c(=O)n2C)c1` (stereo not drawn), 2.34%. Under `COc1ccc(NC(=O)CSCC(=O)Nc2cccc(S(=O)(=O)N3CCCCCC3)c2)cc1` stands 11.8%; under `Cc1cc(C)cc(NC(=S)Nc2ccc3cn[nH]c3c2)c1`, -1.54%; under `COc1ccccc1-n1c(O)c(/C=N/NC(=S)Nc2ccccc2)c(=O)[nH]c1=S`, 10.8%. For the compound `COC(=O)Cc1coc2cc(OC)ccc12`, the “hERG current change (%, negative = inhibition) at 1uM” value stood at 17.6%. Under `CN(C)c1ccc(/C=N/NC(=O)COc2ccccc2)cc1` stands 0.705%; under `Nc1ccc(C(=O)c2cccs2)cn1`, 1.62%; under `Cc1ccccc1-n1ccnc1SCC(=O)O`, 15.5%. In the case of `C=Cn1c(C(=O)O)cc(CC)c1-c1ccccc1` it was -1.72%.

Regarding `O=C(Oc1ccc2c(c1)OCO2)c1ccc(Br)c(S(=O)(=O)N2CCOCC2)c1`, the “hERG current change (%, negative = inhibition) at 1uM” value is 5.08%.

Regarding `COC(=O)CCC(=O)COc1ccccc1C#N`, the “hERG current change (%, negative = inhibition) at 1uM” value amounted to 4.66%.

As for `C(=C\c1ccco1)/c1nc2ccccc2[nH]1`, the “hERG current change (%, negative = inhibition) at 1uM” value is 4.56%. In the case of `COc1ccc(/C=N/NC(=O)c2ccncc2)cc1OC` it was 11.5%. Under `O=C1NC(=O)/C(=C/c2ccc(N3CCOCC3)o2)N1` stands 14.4%; under `Cc1ccc(C)c(S(=O)(=O)NC(CCC(N)=O)C(=O)O)c1` (stereo not drawn), 9.59%; under `CCc1cc2c(-c3ccccc3)cc(=O)oc2cc1OC(C)C(C)=O` (stereo not drawn), 14%. Under `CCCCN(CCCC)CCCNC(=O)C1CC(c2cc(C(F)(F)F)cc(C(F)(F)F)c2)=NO1` (stereo not drawn) stands 12.4%; under `CC(NC(=O)NCCCn1ccnc1)(C(F)(F)F)C(F)(F)F`, 19.2%.
